Source: a collection of fitness landscapes (doi:10.1016/j.celrep.2020.107928)
In all, about 81,000 sequences were measured (“one-hybrid fitness for binding parS DNA”: median about -0.17, highest 2% from about 0.51 on). The list shows a part of the results.

B1: Caulobacter ParB omega fusion; a variant is named by its letters at X, in order, B8GW30 (parent)
chain: MESVVVGEPGMSEGRRGLGRGLSALLGEVDAAPAQAPGEQLGGSREAPIEILQRNPDQPRRTFREEDLEDLSNSIREKGVLQPILVRPSPDTAGEYQIVAGERAWRAAQRAGLKTVPIMVRELDDLAVLEIGIIENVQRADLNVLEEALSYKVLMEKFERTQENIAQTIGKSXSHVANXMRLLXLPDEVQSYLVSGELTAXHARAIAAAADPVALAKQIIEGGLSVRETEALARKAPNLSAGKSKGGRPPRVKDTDTQALESDLSSVLGLDVSIDHRGSTGTLTITYATLEQLDDLCNRLTRGI

Variants of: B1
Assay: one-hybrid fitness for binding parS DNA (scaled: cognate 1, non-cognate 0); higher = stronger binding
Conditions: with parS DNA site
Method in brief: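 Values were rescaled so that cognate is 1 and non-cognate is 0. Each is a fitness, the log change in a variant's read ratio to wild type from Illumina reads of plasmids before and after selection, with three replicate libraries pooled and variants under 10 reads dropped. Selection of the Caulobacter ParB libraries, four specificity codons randomised, used E. coli USO with a HIS3 reporter, site 19 bp from the promoter, on M9-minus-histidine with 0.1 mM IPTG and 5 mM 3-AT for 48 hours at 37°C.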

one-hybrid fitness for binding parS DNA, 0.932:
RSRC

one-hybrid fitness for binding parS DNA, 0.91:
RAKC

one-hybrid fitness for binding parS DNA, 0.363:
RVFM

one-hybrid fitness for binding parS DNA, 0.791:
RIEC

one-hybrid fitness for binding parS DNA, 0.405:
RMDY

one-hybrid fitness for binding parS DNA, 0.749:
RKST

one-hybrid fitness for binding parS DNA, 0.882:
RNQG

one-hybrid fitness for binding parS DNA, 0.868:
RNMS

one-hybrid fitness for binding parS DNA, 0.231:
RVEM

one-hybrid fitness for binding parS DNA, ≤ 0.2:
LYAF
TEWV
RKAQ
ASPK
NRMY
PITC
GWFS
LMTV
IDTI
QSFP
LTGN
TPVP
GKEC
HLCP
QMWS
GVFS
YSQS
LSWT
MNRS
VNSC
LKWR
KHNG
CHLN
IETS
DDIT
RMID
AMSS
VKAR
LIYT
RPLQ
EPDR
TFQS
RPDL
HADL
FTIR
PYRY
RVPN
CEHR
QTFW
SPDY
DKVY
GTHR
HARA
APES
QLPC
RCGR
YPEI
HYMF
SDMT
RMTP
QYKA
DRTW
ALMR
GSRN
MHLF
LSDL
VQLM
MATQ
WHKF
RYMK
IYMI
AHAS
FLSG
QVLD
NPVQ
PVPG
FTEL
SANG
VCCY
RALE
GCTA
PKPG
MSGV
PWRL
AAKY
FMIV
ATWP
LMFY
YSTS
DSTR
YCET
LGWS
LIAR
QPPH
RNGD
HMTT
MSCY
RPMN
QDDA
MFSF
QIEW
HLPP
GSPL
LPID
LCSG
VGME
AFEY
DYSA
AKCK
WRYA
VMPS
RAMI
TVSM
SRPI
RIMI
GRHG
MSAT
FACS
QGTS
QPRK
PKGR
YAFL
QCPF
DVPT
QMFC
SVKD
KDKT
RQGV
EVYD
HNNP
KHAR
WVEL
QMEF
NILF
SLQS
NMAL
NRRF
KQAT
GPRV
MHRY
TQSF
DLRE
EKWT
STWR
LDPY
DTTN
SQIT
CRHT
TSCC
SAYR
TLRI
YHCD
QMWT
AYTT
VWGW
LSPP
QRMY
YQPG
QKMH
ACTF
QGLY
YGGL
MNDF
KNTG
HGLG
CTEG
RNTP
RLAQ
RGDI
VSSF
TLVL
KHPD
TQRM
RIYL
DECN
YMHF
QLMD
QHIR
FSKD
RGCA
SFSN
VPTA
YISK
SMMR
TVTP
QIKN
TMSV
MRYM
PHVI
NGMR
KLCA
ACHM
YMHY
NTIE
SFHM
FSYE
SHWV
NEMG
YQTS
QSDH
TQGL
SYGA
SNNF
THVR
YVRG
RMEF
STSC
LVNV
VCSR
GPQV
KAQR
SSWP
GMNR
RPLA
CVMT
CKRR
PTFR
GSAN
KDRS
GYSG
GEPE
QHRN
AMSD
SGLP
KCAN
PVFE
QMGS
GGHT
TSAE
QPLK
QMVV
IVGS
VASY
DMDS
CATA
QEAF
TVHK
GQSR
VSIL
GQTW
VEPH
HNDC
YDAT
YCYS
YVTT
TQGW
YPDY
TCRD
RGFV
SMYI
CLML
SWAY
MWHL
SYHS
EMPR
ASVY
MEPS
AARA
LLYH
DYLM
YQLE
LGKG
QQCS
TNYS
AHYY
ERHR
ARFK
ISQW
LYKG
QFAK
RSSQ
PPDC
PNEP
RGKR
IALC
VWDT
RCKD
STGE
ASVW
CADI
WGSS
GIDI
KFAR
HHKC
MWRG
SNTE
CSGF
FTTG
SDTR
SSDD
SGKY
YKTS
HVMT
TDKE
CTTM
NVAA
DLFA
KQSM
ENAS
TQET
QFAF
FLEV
RDTV
FSPS

one-hybrid fitness for binding parS DNA, 0.261:
RMRH

one-hybrid fitness for binding parS DNA, 0.403:
RYPT

one-hybrid fitness for binding parS DNA, 0.526:
RCCY
